Out of some 310,000 compounds screened, about 2,200 (0.71%) showed an effect of 50% or more. Effects have a minus sign here. The list shows a part of the results.
What follows are compounds tested against human ether-à-go-go-related gene (hERG) potassium channel (human, UniProt Q12809) (assay: primary screen, population patch clamp on CHO cells stably expressing hERG).
human ether-à-go-go-related gene (hERG) potassium channel, sequence (Q12809 whole entry, looked up): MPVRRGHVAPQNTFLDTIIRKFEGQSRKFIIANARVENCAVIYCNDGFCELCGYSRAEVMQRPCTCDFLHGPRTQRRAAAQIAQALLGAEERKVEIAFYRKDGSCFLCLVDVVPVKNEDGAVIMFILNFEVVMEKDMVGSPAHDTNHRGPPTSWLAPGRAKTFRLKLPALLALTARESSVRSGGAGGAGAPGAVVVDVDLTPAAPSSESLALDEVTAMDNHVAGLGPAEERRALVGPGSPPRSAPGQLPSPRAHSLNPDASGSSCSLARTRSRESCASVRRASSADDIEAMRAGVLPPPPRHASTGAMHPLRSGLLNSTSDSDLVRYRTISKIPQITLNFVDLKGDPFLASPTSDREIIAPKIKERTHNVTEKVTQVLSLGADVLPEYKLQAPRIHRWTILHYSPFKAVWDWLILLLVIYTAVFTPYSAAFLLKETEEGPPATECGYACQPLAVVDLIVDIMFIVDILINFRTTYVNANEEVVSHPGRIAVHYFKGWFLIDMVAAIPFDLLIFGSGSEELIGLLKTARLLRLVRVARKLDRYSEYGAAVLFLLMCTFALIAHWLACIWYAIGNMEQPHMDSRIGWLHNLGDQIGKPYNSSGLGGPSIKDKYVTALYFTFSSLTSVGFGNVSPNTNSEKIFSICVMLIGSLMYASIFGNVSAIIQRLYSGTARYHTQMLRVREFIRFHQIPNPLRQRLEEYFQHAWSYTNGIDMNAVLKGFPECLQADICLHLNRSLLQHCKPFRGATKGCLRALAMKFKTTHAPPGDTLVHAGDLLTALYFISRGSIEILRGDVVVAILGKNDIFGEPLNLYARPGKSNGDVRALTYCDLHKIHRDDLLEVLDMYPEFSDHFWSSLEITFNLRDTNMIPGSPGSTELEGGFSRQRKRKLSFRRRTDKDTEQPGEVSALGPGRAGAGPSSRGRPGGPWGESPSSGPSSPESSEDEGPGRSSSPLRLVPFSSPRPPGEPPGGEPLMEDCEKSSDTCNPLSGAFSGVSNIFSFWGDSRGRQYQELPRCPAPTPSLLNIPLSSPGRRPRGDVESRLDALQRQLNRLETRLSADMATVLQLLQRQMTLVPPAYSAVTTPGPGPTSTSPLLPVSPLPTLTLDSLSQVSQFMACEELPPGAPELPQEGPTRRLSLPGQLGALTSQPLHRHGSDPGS

| Compound | hERG current change (%, negative = inhibition) at 1uM |
| --- | --- |
| CN(C)C(=O)Nc1ccccc1CC[N+](=O)[O-] | 11.5% |
| O=C(COC(=O)Cn1nc(-c2ccccc2)oc1=O)Nc1ccc(F)cc1 | 8.8% |
| Nc1nc2n(n1)C(c1cccs1)CC(c1ccc(Br)cc1)N2 (stereo not shown) | -2.98% |
| O=C(NNS(=O)(=O)c1ccccc1)C1CCCCC1 | 9.27% |
| COC(=O)CCC(=O)NNC(=O)C1CC1(c1ccccc1)c1ccccc1 (stereo not shown) | 11.7% |
| COc1ccc(C)cc1-n1nnnc1SCc1nc2ccccc2c(=O)[nH]1 | 1.9% |
| CC(C)c1ccc(-n2c(O)c(C=NC(CCS(C)=O)C(=O)O)c(=O)[nH]c2=S)cc1 (stereo not shown) | 13.9% |
| CN(CCc1ccccn1)C(=O)CCC1CCCN(C(=O)c2c(F)ccc(F)c2F)C1 (stereo not shown) | 9.95% |
| CCn1c(C)nc2cc(C(=O)NNS(=O)(=O)c3ccc(C)cc3C)ccc21 | -3.67% |
| COc1cccc(NC(=O)Nc2ccc(CC(=O)O)cc2)c1 | 9.06% |
| NC(=O)c1ccccc1-c1nc(-c2ccccc2)no1 | 2.82% |
| O=C1CNC(=S)N1c1nc(-c2ccccc2)cs1 | 17.5% |
| Cc1nn(Cc2cccc(C(=O)Nc3ccn(Cc4c(F)c(F)cc(F)c4F)n3)c2)c(C)c1[N+](=O)[O-] | 8% |
| O=C(CCN1C(=O)c2ccccc2C1=O)CN1CCOCC1 | 7.68% |
| CC(=O)Nc1nc(C)c(CCC2OCCO2)c(=O)[nH]1 | 14.9% |
| O=C(CCn1c(=O)sc2ccccc21)Nc1nccs1 | 5.18% |
| C/C(CC(=O)c1ccccc1)=N\NC(=O)CC#N | 14.5% |
| Clc1nc(CN2CCOCC2)nc2sc3c(c12)CCC3 | 4.69% |
| N#C/C(=C\c1c[nH]c2ccccc12)C(=O)Nc1ncc(Cc2ccc(Cl)cc2Cl)s1 | 14.4% |
| COc1ccc(CCNC(=O)C/C(C)=N/NC(=O)C23CC4CC(CC(C4)C2)C3)cc1OC | 10.8% |
| O=C(Cn1ccc2ccccc2c1=O)NCCC(=O)N1CCN(c2ccccc2)CC1 | 21.1% |
| CCOc1cc(N2CCOCC2)c(OCC)cc1NC(=O)COC(=O)c1cccc2ccccc12 | 19.8% |
| Cc1ccc(N2CCN(C(=O)c3cccs3)CC2)cc1C | 11.6% |
| CC(C)Cc1nnc(NC(=O)CCC(=O)Nc2ccc3cn[nH]c3c2)s1 | 14.8% |
| Cc1ccccc1CCN(C(=O)Cn1nnc2ccccc21)C(C(=O)NC(C)(C)C)c1ccsc1 (stereo not shown) | 4.35% |

From PMC4336329 (PLoS ONE, 2015)
